Experimental data as given in the supplement of paper PMC4967469.
pIC50: −log10 of the molar value. Lines with a small IC50 respond at low doses; a fit beyond the top or the lowest dose is shown as a bound at that dose. AUC, from the same fit, is the share of area under the viability curve across the 256-fold dose range; it is 1 without any effect and falls as sensitivity rises. For some assays here: Any top dose called inferred is not printed in the source and was worked back from the curve model.

How the values were obtained:
Test in all cases: Viability of human cancer cell lines after 72 h of drug (GDSC screen)
[1] = compound: C=CC(=O)Nc1cc(-n2c(=O)ccc3cnc4ccc(-c5ccc(NS(C)(=O)=O)cc5)cc4c32)ccc1C [BMX-IN-1 (QL-XII-61)]; details: top dose 10 µM; top dose inferred
Protocol: (§1)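 Human cancer cell lines in 384-well plates, medium with 10% serum, drug for 72 h over a 256-fold dose range (nine 2-fold or five 4-fold steps up to the top dose). Adherent lines were fixed and stained with the nucleic acid dye Syto60, suspension lines read with resazurin; signal relative to control wells, capped at 0 and 100%. One two-parameter sigmoid per drug and line, fitted in a mixed model over all curves with the slope shared within a line.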

[2] = compound: C=CCNC1=C2C[C@@H](C)C[C@H](OC)[C@H](O)[C@@H](C)/C=C(\C)[C@H](OC(N)=O)[C@@H](OC)/C=C\C=C(/C)C(=O)NC(=CC1=O)C2=O [17-AAG]; details: top dose 1 µM
Protocol: as §1

[3] = compound: CCc1cc(-c2n[nH]c(C)c2-c2ccc3c(c2)OCCO3)c(O)cc1O [CCT018159]; details: top dose 10 µM; top dose inferred
Protocol: as §1

[4] = compound: CN(C)Cc1cccc(N=C(c2ccccc2)c2c(O)[nH]c3cc(C(=O)N(C)C)ccc23)c1 [BIX02189]; details: top dose 20 µM; top dose inferred
Protocol: as §1

[5] = compound: COC(=O)CNC(=O)C(=O)OC [Dimethyloxalylglycine]; details: top dose 4000 µM; top dose inferred
Protocol: as §1

[6] = compound: COc1cccc2cc(-c3nc([C@H]4CC[C@H](C(=O)O)CC4)n4ncnc(N)c34)[nH]c12 [OSI-027]; details: top dose 20 µM
Protocol: as §1

[7] = compound: Cc1cnc(Nc2ccc(F)cc2Cl)nc1-c1c[nH]c(C(=O)N[C@H](CO)c2cccc(Cl)c2)c1 [VX-11e]; details: top dose 5.12 µM; top dose inferred
Protocol: as §1

[8] = compound: Cc1cnc(Nc2ccc(OCCN3CCCC3)cc2)nc1Nc1cccc(S(=O)(=O)NC(C)(C)C)c1 [TG101348]; details: top dose 10.24 µM
Protocol: as §1

[9] = compound: O=C(c1ccc(C(=O)N2CCC(N3CCCC3)CC2)c(Nc2ccccc2)c1)N1CCC(N2CCCC2)CC1 [UNC1215]; details: top dose 1 µM; top dose inferred
Protocol: as §1

[10] = compound: CS(=O)(=O)c1ccc(C(=O)Nc2ccc(Cl)c(-c3ccccn3)c2)c(Cl)c1 [Vismodegib]; details: top dose 10 µM; top dose inferred
Protocol: as §1

Cell Line: OVCAR-8 (ovary, adherent)
- AUC [1]: 0.97
- pIC50 [1]: < 5.00
- AUC [2]: 0.587
- pIC50 [2]: 6.98
- AUC [3]: 0.83
- pIC50 [3]: 5.27
- AUC [4]: 0.935
- pIC50 [4]: < 4.70
- AUC [5]: 0.629
- pIC50 [5]: 3.27
- AUC [6]: 0.508
- pIC50 [6]: 5.88
- AUC [7]: 0.866
- pIC50 [7]: 5.42
- AUC [8]: 0.867
- pIC50 [8]: 5.11
- AUC [9]: 0.989
- pIC50 [9]: < 6.00

Cell Line: RL95-2 (endometrium, adherent)
- AUC [1]: 0.926
- pIC50 [1]: < 5.00
- AUC [4]: 0.945
- pIC50 [4]: < 4.70
- AUC [5]: 0.856
- pIC50 [5]: 2.50
- AUC [6]: 0.943
- pIC50 [6]: < 4.70
- AUC [10]: 0.971
- pIC50 [10]: < 5.00
- AUC [7]: 0.771
- pIC50 [7]: 5.71
- AUC [8]: 0.967
- pIC50 [8]: < 4.99
- AUC [9]: 0.986
- pIC50 [9]: < 6.00

Cell Line: HSC-4 (head and neck, adherent)
- AUC [1]: 0.97
- pIC50 [1]: < 5.00
- AUC [3]: 0.793
- pIC50 [3]: 5.20
- AUC [4]: 0.96
- pIC50 [4]: < 4.70
- AUC [5]: 0.552
- pIC50 [5]: 3.44
- AUC [6]: 0.578
- pIC50 [6]: 5.66
- AUC [10]: 0.94
- pIC50 [10]: < 5.00
- AUC [7]: 0.951
- pIC50 [7]: < 5.29
- AUC [8]: 0.948
- pIC50 [8]: < 4.99
- AUC [9]: 0.971
- pIC50 [9]: < 6.00

Cell Line: NCI-H2066 (small cell lung carcinoma, adherent)
- AUC [1]: 0.975
- pIC50 [1]: < 5.00
- AUC [2]: 0.948
- pIC50 [2]: < 6.00
- AUC [9]: 0.977
- pIC50 [9]: < 6.00

Cell Line: A673 (rhabdomyosarcoma, adherent)
- AUC [1]: 0.989
- pIC50 [1]: < 5.00
- AUC [2]: 0.984
- pIC50 [2]: < 6.00
- AUC [3]: 0.899
- pIC50 [3]: < 5.00
- AUC [4]: 0.978
- pIC50 [4]: < 4.70
- AUC [5]: 0.548
- pIC50 [5]: 3.48
- AUC [7]: 0.988
- pIC50 [7]: < 5.29
- AUC [8]: 0.898
- pIC50 [8]: < 4.99
- AUC [9]: 0.989
- pIC50 [9]: < 6.00

Cell Line: H2722 (mesothelioma, adherent)
- AUC [1]: 0.952
- pIC50 [1]: < 5.00
- AUC [3]: 0.925
- pIC50 [3]: < 5.00
- AUC [4]: 0.94
- pIC50 [4]: < 4.70
- AUC [5]: 0.606
- pIC50 [5]: 3.29
- AUC [6]: 0.797
- pIC50 [6]: 4.94
- AUC [10]: 0.984
- pIC50 [10]: < 5.00
- AUC [7]: 0.98
- pIC50 [7]: < 5.29
- AUC [8]: 0.822
- pIC50 [8]: 5.12
- AUC [9]: 0.982
- pIC50 [9]: < 6.00

Cell Line: HT-29 (large intestine, adherent)
- AUC [1]: 0.978
- pIC50 [1]: < 5.00
- AUC [3]: 0.96
- pIC50 [3]: < 5.00
- AUC [4]: 0.957
- pIC50 [4]: < 4.70
- AUC [5]: 0.661
- pIC50 [5]: 3.16
- AUC [6]: 0.771
- pIC50 [6]: 5.12
- AUC [10]: 0.988
- pIC50 [10]: < 5.00
- AUC [7]: 0.681
- pIC50 [7]: 5.99
- AUC [8]: 0.761
- pIC50 [8]: 5.44
- AUC [9]: 0.986
- pIC50 [9]: < 6.00

Cell Line: NCI-H460 (large cell lung carcinoma, adherent)
- AUC [1]: 0.985
- pIC50 [1]: < 5.00
- AUC [3]: 0.819
- pIC50 [3]: 5.30
- AUC [4]: 0.97
- pIC50 [4]: < 4.70
- AUC [5]: 0.446
- pIC50 [5]: 3.74
- AUC [6]: 0.985
- pIC50 [6]: < 4.70
- AUC [10]: 0.99
- pIC50 [10]: < 5.00
- AUC [7]: 0.944
- pIC50 [7]: < 5.29
- AUC [8]: 0.98
- pIC50 [8]: < 4.99
- AUC [9]: 0.899
- pIC50 [9]: < 6.00

Cell Line: H2810 (mesothelioma, adherent)
- AUC [1]: 0.981
- pIC50 [1]: < 5.00
- AUC [3]: 0.943
- pIC50 [3]: < 5.00
- AUC [9]: 0.984
- pIC50 [9]: < 6.00

Cell Line: HCT-15 (large intestine, adherent)
- AUC [1]: 0.985
- pIC50 [1]: < 5.00
- AUC [3]: 0.779
- pIC50 [3]: 5.36
- AUC [4]: 0.951
- pIC50 [4]: < 4.70
- AUC [5]: 0.769
- pIC50 [5]: 2.80
- AUC [6]: 0.7
- pIC50 [6]: 5.32
- AUC [10]: 0.987
- pIC50 [10]: < 5.00
- AUC [7]: 0.817
- pIC50 [7]: 5.51
- AUC [8]: 0.942
- pIC50 [8]: < 4.99
- AUC [9]: 0.985
- pIC50 [9]: < 6.00

Cell Line: MDA-MB-175-VII (breast, adherent)
- AUC [1]: 0.986
- pIC50 [1]: < 5.00
- AUC [3]: 0.913
- pIC50 [3]: < 5.00
- AUC [4]: 0.987
- pIC50 [4]: < 4.70
- AUC [5]: 0.904
- pIC50 [5]: < 2.40
- AUC [6]: 0.547
- pIC50 [6]: 5.77
- AUC [10]: 0.988
- pIC50 [10]: < 5.00
- AUC [7]: 0.918
- pIC50 [7]: < 5.29
- AUC [8]: 0.957
- pIC50 [8]: < 4.99
- AUC [9]: 0.986
- pIC50 [9]: < 6.00

Cell Line: BT-474 (breast, adherent)
- AUC [1]: 0.654
- pIC50 [1]: 5.75
- AUC [3]: 0.851
- pIC50 [3]: 5.04
- AUC [4]: 0.972
- pIC50 [4]: < 4.70
- AUC [5]: 0.947
- pIC50 [5]: < 2.40
- AUC [6]: 0.444
- pIC50 [6]: 6.06
- AUC [10]: 0.984
- pIC50 [10]: < 5.00
- AUC [7]: 0.947
- pIC50 [7]: < 5.29
- AUC [8]: 0.936
- pIC50 [8]: < 4.99
- AUC [9]: 0.984
- pIC50 [9]: < 6.00

Cell Line: K-562 (chronic myeloid leukaemia, suspension)
- AUC [1]: 0.937
- pIC50 [1]: < 5.00
- AUC [2]: 0.698
- pIC50 [2]: 6.66
- AUC [3]: 0.869
- pIC50 [3]: 5.06
- AUC [5]: 0.798
- pIC50 [5]: 2.74

Cell Line: HCT-116 (large intestine, adherent)
- AUC [1]: 0.984
- pIC50 [1]: < 5.00
- AUC [3]: 0.839
- pIC50 [3]: 5.20
- AUC [4]: 0.895
- pIC50 [4]: < 4.70
- AUC [5]: 0.608
- pIC50 [5]: 3.31
- AUC [6]: 0.525
- pIC50 [6]: 5.84
- AUC [10]: 0.952
- pIC50 [10]: < 5.00
- AUC [7]: 0.558
- pIC50 [7]: 6.34
- AUC [8]: 0.576
- pIC50 [8]: 5.99
- AUC [9]: 0.983
- pIC50 [9]: < 6.00

Cell Line: U-2-OS (osteosarcoma, adherent)
- AUC [1]: 0.874
- pIC50 [1]: < 5.00
- AUC [3]: 0.866
- pIC50 [3]: < 5.00
- AUC [4]: 0.975
- pIC50 [4]: < 4.70
- AUC [6]: 0.875
- pIC50 [6]: < 4.70
- AUC [7]: 0.981
- pIC50 [7]: < 5.29
- AUC [8]: 0.941
- pIC50 [8]: < 4.99
- AUC [9]: 0.984
- pIC50 [9]: < 6.00

Cell Line: SKM-1 (haematopoietic neoplasm, suspension)
- AUC [1]: 0.76
- pIC50 [1]: 5.41
- AUC [2]: 0.673
- pIC50 [2]: 6.70
- AUC [3]: 0.875
- pIC50 [3]: < 5.00
- AUC [9]: 0.981
- pIC50 [9]: < 6.00
